The source of these data is the supplement of paper PMC10369915.

Some of the results follow. Rule as the data show it: active = 3.2 or more and inactive = the rest. Most of these values are background signal.
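Also: displayed peptides selected on beads carrying the immobilized SH2 domain, with library peptides lacking any tyrosine serving as negative controls.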

One test addresses SHP2 C-SH2 domain E139D. Put plainly: enrichment score (SH2-bound / input frequency) (ratio); bacterial display of known human phosphotyrosine sites (pTyr-Var adds point mutants) read by sequencing; higher = stronger binding; tyrosines were phosphorylated by kinases first. The conditions noted are these: peptide library: pTyr-Var.
For DPYHVYIKNHV [KCNE3_Y95_R99H], the enrichment score was inactive: 1.03.

As for GKLIFYDLRGE [KARS1_Y145], the enrichment score was inactive: 1.14.

For the molecule LGSVVYAHSKE [KCNQ2_Y226], the enrichment score is inactive: 0.969.

Turning to LLTALYFISWG [KCNH2_Y780_R784W], the enrichment score was inactive: 2.59.

Take GMRHGHGVRQS [JPH2_Y141_Y141H]: the enrichment score was inactive: 2.45.

On to ASNFNYFYHRE [KCNA1_Y413_V408A], for which the enrichment score was inactive: 0.83.

Consider QQTFTYDSGIH [JUP_Y22_YF], for which the enrichment score is inactive: 0.72.

Consider GCRSKSVGLWG [KCNQ1_Y184_Y184S], for which the enrichment score was inactive: 0.712.

DLDATYRPMYS [JUP_Y701_M697L]: the enrichment score was inactive: 0.564.

Turning to SIKDKYVTAVF [KCNH2_Y611_L615V_YF], the enrichment score was inactive: 1.23.

In the case of LITTLYSGFLG [KCNQ1_Y267_I268S], the enrichment score was active: 3.39.

With EWQQTYTYDSG [JUP_Y20], the enrichment score is inactive: 0.934.

NVLPEYKLQAP [KCNH2_Y388_D383N]: the enrichment score was inactive: 1.

With FSVDGYDSSVR [KCNQ1_Y461], the enrichment score is inactive: 0.928.

For the molecule GREEFYVHFVG [KAT8_Y90_YF], the enrichment score was inactive: 1.4.

For the molecule SRGRQYQELPR [KCNH2_Y1009], the enrichment score is inactive: 0.48.

With FSVDSYDSSVR [KCNQ1_Y461_G460S], the enrichment score is inactive: 0.988.

In the case of LITTLYIDFLG [KCNQ1_Y267_G269D], the enrichment score was inactive: 2.04.

In the next test the target is SHP2 C-SH2 domain wild-type. The description is as above. The following applies: peptide library: pTyr-Var.
DPYHVYIKNHV [KCNE3_Y95_R99H]: the enrichment score was inactive: 1.01.

As for GKLIFYDLRGE [KARS1_Y145], the enrichment score is inactive: 0.94.

For the molecule LGSVVYAHSKE [KCNQ2_Y226], the enrichment score is inactive: 1.03.

Turning to LLTALYFISWG [KCNH2_Y780_R784W], the enrichment score is inactive: 2.67.

As for GMRHGHGVRQS [JPH2_Y141_Y141H], the enrichment score was inactive: 2.04.

Regarding ASNFNYFYHRE [KCNA1_Y413_V408A], the enrichment score is inactive: 0.789.

Take QQTFTYDSGIH [JUP_Y22_YF]: the enrichment score was inactive: 0.759.

In the case of GCRSKSVGLWG [KCNQ1_Y184_Y184S], the enrichment score is inactive: 0.698.

For DLDATYRPMYS [JUP_Y701_M697L], the enrichment score is inactive: 0.493.

In the case of SIKDKYVTAVF [KCNH2_Y611_L615V_YF], the enrichment score was inactive: 1.33.

Turning to LITTLYSGFLG [KCNQ1_Y267_I268S], the enrichment score is inactive: 2.85.

With EWQQTYTYDSG [JUP_Y20], the enrichment score is inactive: 0.746.

With NVLPEYKLQAP [KCNH2_Y388_D383N], the enrichment score was inactive: 0.756.

Regarding FSVDGYDSSVR [KCNQ1_Y461], the enrichment score is inactive: 0.621.

GREEFYVHFVG [KAT8_Y90_YF]: the enrichment score was inactive: 1.5.

Turning to SRGRQYQELPR [KCNH2_Y1009], the enrichment score is inactive: 0.459.

On to FSVDSYDSSVR [KCNQ1_Y461_G460S], for which the enrichment score was inactive: 0.904.

LITTLYIDFLG [KCNQ1_Y267_G269D]: the enrichment score was inactive: 2.53.

In another test the target is SHP2 N-SH2 domain L43F. The test is described as above. The following applies: peptide library: pTyr-Var.
As to DPYHVYIKNHV [KCNE3_Y95_R99H], the enrichment score was inactive: 0.94.

For the molecule GKLIFYDLRGE [KARS1_Y145], the enrichment score was inactive: 1.23.

LGSVVYAHSKE [KCNQ2_Y226]: the enrichment score is inactive: 0.903.

Turning to LLTALYFISWG [KCNH2_Y780_R784W], the enrichment score was inactive: 2.58.

Regarding GMRHGHGVRQS [JPH2_Y141_Y141H], the enrichment score is inactive: 2.2.

Turning to ASNFNYFYHRE [KCNA1_Y413_V408A], the enrichment score is inactive: 0.581.

Turning to QQTFTYDSGIH [JUP_Y22_YF], the enrichment score was inactive: 0.68.

As for GCRSKSVGLWG [KCNQ1_Y184_Y184S], the enrichment score is inactive: 0.776.

For DLDATYRPMYS [JUP_Y701_M697L], the enrichment score was inactive: 0.567.

Turning to SIKDKYVTAVF [KCNH2_Y611_L615V_YF], the enrichment score is active: 3.33.

Regarding LITTLYSGFLG [KCNQ1_Y267_I268S], the enrichment score was active: 3.42.

For the molecule EWQQTYTYDSG [JUP_Y20], the enrichment score was inactive: 0.727.

On to NVLPEYKLQAP [KCNH2_Y388_D383N], for which the enrichment score is inactive: 0.864.

Regarding FSVDGYDSSVR [KCNQ1_Y461], the enrichment score is inactive: 0.626.

As to GREEFYVHFVG [KAT8_Y90_YF], the enrichment score was inactive: 1.04.

Regarding SRGRQYQELPR [KCNH2_Y1009], the enrichment score was inactive: 0.475.

With FSVDSYDSSVR [KCNQ1_Y461_G460S], the enrichment score is inactive: 1.28.

As for LITTLYIDFLG [KCNQ1_Y267_G269D], the enrichment score was inactive: 1.94.

For the next test, the target named is SHP2 N-SH2 domain T42A. The description is as above. The following applies: peptide library: pTyr-Var.
For DPYHVYIKNHV [KCNE3_Y95_R99H], the enrichment score is inactive: 0.845.

For GKLIFYDLRGE [KARS1_Y145], the enrichment score was inactive: 1.13.

Take LGSVVYAHSKE [KCNQ2_Y226]: the enrichment score is inactive: 0.547.

Consider LLTALYFISWG [KCNH2_Y780_R784W], for which the enrichment score is inactive: 2.06.

Consider GMRHGHGVRQS [JPH2_Y141_Y141H], for which the enrichment score was inactive: 2.09.

For the molecule ASNFNYFYHRE [KCNA1_Y413_V408A], the enrichment score is inactive: 0.817.

For QQTFTYDSGIH [JUP_Y22_YF], the enrichment score is inactive: 0.68.

For the molecule GCRSKSVGLWG [KCNQ1_Y184_Y184S], the enrichment score is inactive: 0.492.

For the molecule DLDATYRPMYS [JUP_Y701_M697L], the enrichment score is inactive: 0.525.

On to SIKDKYVTAVF [KCNH2_Y611_L615V_YF], for which the enrichment score was inactive: 1.76.

In the case of LITTLYSGFLG [KCNQ1_Y267_I268S], the enrichment score was active: 3.33.

Take EWQQTYTYDSG [JUP_Y20]: the enrichment score is inactive: 0.767.

Turning to NVLPEYKLQAP [KCNH2_Y388_D383N], the enrichment score is inactive: 0.756.

Turning to FSVDGYDSSVR [KCNQ1_Y461], the enrichment score is inactive: 0.476.

For GREEFYVHFVG [KAT8_Y90_YF], the enrichment score was inactive: 1.24.

In the case of SRGRQYQELPR [KCNH2_Y1009], the enrichment score is inactive: 0.445.

FSVDSYDSSVR [KCNQ1_Y461_G460S]: the enrichment score is inactive: 0.83.

Turning to LITTLYIDFLG [KCNQ1_Y267_G269D], the enrichment score was inactive: 1.79.

In a further test the target is SHP2 N-SH2 domain T52S. The test is described as above. The following applies: peptide library: pTyr-Var.
As for DPYHVYIKNHV [KCNE3_Y95_R99H], the enrichment score is inactive: 0.873.

Take GKLIFYDLRGE [KARS1_Y145]: the enrichment score is inactive: 1.35.

Take LGSVVYAHSKE [KCNQ2_Y226]: the enrichment score was inactive: 0.849.

With LLTALYFISWG [KCNH2_Y780_R784W], the enrichment score is inactive: 2.46.

Consider GMRHGHGVRQS [JPH2_Y141_Y141H], for which the enrichment score was inactive: 2.42.

On to ASNFNYFYHRE [KCNA1_Y413_V408A], for which the enrichment score was inactive: 1.28.

As to QQTFTYDSGIH [JUP_Y22_YF], the enrichment score is inactive: 0.755.

GCRSKSVGLWG [KCNQ1_Y184_Y184S]: the enrichment score is inactive: 0.632.

Consider DLDATYRPMYS [JUP_Y701_M697L], for which the enrichment score is inactive: 0.581.

Take SIKDKYVTAVF [KCNH2_Y611_L615V_YF]: the enrichment score was active: 4.16.

With LITTLYSGFLG [KCNQ1_Y267_I268S], the enrichment score is inactive: 2.22.

In the case of EWQQTYTYDSG [JUP_Y20], the enrichment score was inactive: 0.984.

For NVLPEYKLQAP [KCNH2_Y388_D383N], the enrichment score is inactive: 0.981.

On to FSVDGYDSSVR [KCNQ1_Y461], for which the enrichment score was inactive: 0.834.

GREEFYVHFVG [KAT8_Y90_YF]: the enrichment score was inactive: 1.17.

Turning to SRGRQYQELPR [KCNH2_Y1009], the enrichment score was inactive: 0.431.

Regarding FSVDSYDSSVR [KCNQ1_Y461_G460S], the enrichment score was inactive: 1.24.

Regarding LITTLYIDFLG [KCNQ1_Y267_G269D], the enrichment score is inactive: 1.73.

Another test concerns the target SHP2 N-SH2 domain wild-type. The test is described as above. The conditions noted are these: peptide library: pTyr-Var.
With DPYHVYIKNHV [KCNE3_Y95_R99H], the enrichment score was inactive: 1.06.

For the molecule GKLIFYDLRGE [KARS1_Y145], the enrichment score was inactive: 1.27.

Turning to LGSVVYAHSKE [KCNQ2_Y226], the enrichment score is inactive: 0.618.

With LLTALYFISWG [KCNH2_Y780_R784W], the enrichment score is inactive: 2.79.

Regarding GMRHGHGVRQS [JPH2_Y141_Y141H], the enrichment score is inactive: 1.88.

For the molecule ASNFNYFYHRE [KCNA1_Y413_V408A], the enrichment score is inactive: 0.842.

On to QQTFTYDSGIH [JUP_Y22_YF], for which the enrichment score is inactive: 1.22.

In the case of GCRSKSVGLWG [KCNQ1_Y184_Y184S], the enrichment score was inactive: 0.843.

As for DLDATYRPMYS [JUP_Y701_M697L], the enrichment score was inactive: 0.621.

Regarding SIKDKYVTAVF [KCNH2_Y611_L615V_YF], the enrichment score was inactive: 1.62.

Consider LITTLYSGFLG [KCNQ1_Y267_I268S], for which the enrichment score was inactive: 2.95.

With EWQQTYTYDSG [JUP_Y20], the enrichment score was inactive: 0.887.

With NVLPEYKLQAP [KCNH2_Y388_D383N], the enrichment score was inactive: 0.803.

With FSVDGYDSSVR [KCNQ1_Y461], the enrichment score was inactive: 0.764.

Take GREEFYVHFVG [KAT8_Y90_YF]: the enrichment score was inactive: 1.23.

Regarding SRGRQYQELPR [KCNH2_Y1009], the enrichment score was inactive: 0.489.

For the molecule FSVDSYDSSVR [KCNQ1_Y461_G460S], the enrichment score is inactive: 0.889.

For LITTLYIDFLG [KCNQ1_Y267_G269D], the enrichment score is inactive: 2.53.
